Results on 1 substance are retold here after patent US12274759B2, “Affibody proteins specific for B7-H3 (CD276)” (THE BOARD OF TRUSTEES OF THE LELAND STANFORD JUNIOR …, priority 2018, dated 2025).

Entries after “also recorded” stand apart in the source; their conditions may differ.

The target in test [1] is T1, human CD276 (B7-H3), MS1-CD276 cells (Homo sapiens, UniProt Q5ZPR3).
T1 construct: expressed in transfected cells; host or cells: MS1 (Mile Sven 1) mouse endothelial cells, gift from J. Willmann (Stanford)
T1 sequence (Q5ZPR3 29-534): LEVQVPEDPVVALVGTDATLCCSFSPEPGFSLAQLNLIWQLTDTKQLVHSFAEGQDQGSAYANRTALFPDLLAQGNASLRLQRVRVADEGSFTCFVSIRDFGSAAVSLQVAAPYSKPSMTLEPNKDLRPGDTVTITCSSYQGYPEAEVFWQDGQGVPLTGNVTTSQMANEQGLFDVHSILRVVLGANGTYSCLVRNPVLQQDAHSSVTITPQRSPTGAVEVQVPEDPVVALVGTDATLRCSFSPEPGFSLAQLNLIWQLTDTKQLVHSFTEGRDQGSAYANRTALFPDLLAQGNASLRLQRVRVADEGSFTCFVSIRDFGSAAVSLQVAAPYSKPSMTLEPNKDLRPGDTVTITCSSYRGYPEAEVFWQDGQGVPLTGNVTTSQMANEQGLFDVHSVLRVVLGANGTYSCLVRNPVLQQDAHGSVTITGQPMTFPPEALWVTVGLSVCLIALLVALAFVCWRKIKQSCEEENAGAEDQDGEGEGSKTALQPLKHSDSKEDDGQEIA
As to the kind of experiment: Affinity measurement by titration on MS1-CD276 cells, flow cytometry. Type of test: binding. The method, then:
Affinity Measurement. MS1-CD276 were grown to 70-90% confluence. Cells were washed once with 5 mL PBS, detached by trypsin-EDTA treatment for 4-7 min, quenched by the addition of serum-containing culture medium, pelleted at 500 g for 3 min, and resuspended in PBSACM Fifty thousand cells were pelleted at 500 g for 3 min at 4° C. and incubated with purified ligand at varying concentrations at 4° C. with rotation. Cells were washed once with ice cold PBSACM, pelleted at 500 g for 3 min, incubated with 1:200 dilution rabbit anti-His-tag FITC conjugate (pAb, Genscript) for 30 min at 4° C., washed once more with ice cold PBSACM, and again pelleted at 500 g for 3 min at 4° C. Fluorescence was analyzed by flow cytometry using an Accuri C6. Affibody affinity was determined through nonlinear least squares regression.
For orientation: Flow cytometry measures light scatter and fluorescence of single cells or particles in a stream.

The target of another test is T2, mB7-H3 (RAW264.7 cells) (Mus musculus, UniProt Q8VE98).
T2 construct: endogenous in cells; host or cells: RAW264.7 mouse monocyte cell line
T2 sequence (Q8VE98 29-316): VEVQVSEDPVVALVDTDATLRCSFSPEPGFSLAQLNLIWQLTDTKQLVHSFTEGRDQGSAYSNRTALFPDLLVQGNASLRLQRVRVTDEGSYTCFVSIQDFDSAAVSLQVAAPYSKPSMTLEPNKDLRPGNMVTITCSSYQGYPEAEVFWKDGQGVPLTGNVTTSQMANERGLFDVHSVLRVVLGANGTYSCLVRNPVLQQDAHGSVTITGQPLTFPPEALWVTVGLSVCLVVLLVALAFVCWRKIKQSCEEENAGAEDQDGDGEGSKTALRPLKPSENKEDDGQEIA
As to the kind of experiment: Flow cytometry binding to RAW264.7 mouse monocyte cell line. The note with it: Example 3. An excerpt:
(§1) FIG. 10. ABYB7-H3 binds to B7-H3-positive cells with high specificity in vitro. (A) Human B7-H3 protein overexpression in the cell lysate of stably transfected murine endothelial cells, MS1hB7-H3, compared to that of MS1 wild-type (MS1WT) cells by western blot with fluorescent detection. CD31 is an endothelial cell-specific maker and actin β is a protein loading control. Numbers below the protein bands indicate radiance (p/sec/cm^2/sr) of the expressed proteins. (B) Left panel: Histogram showing cell-surface hB7-H3 receptor expression in MS1hB7-H3 cells compared to MS1WT r by flow cytometry using anti-hB7-H3-APC antibody (Ab) or no antibody control (Ctl,). Right panels: Biotin- ABYB7-H3 (10 μM) binding specifically to MS1hB7-H3 cells but not the MS1WT cells as detected by streptavidin-AF647 dye. (C) Cell surface staining of endogenous mB7-H3 in the mouse monocyte cell line, RAW264.7, using anti-mB7-H3 antibody compared to IgG control (Ctl.) antibody; histogram representation of biotin-ABYB7-H3 (10 μM) binding to cells. […] Unstained control (Ctl.) cells used as reference. (E) Immunofluorescence staining with ABYBY-H3-AF647 (red) and a nuclear marker, DAPI (blue), in a human breast tumor and normal breast tissue sections. Scale bar represents 100 μm. Zoomed images of insets are shown on the right panel.
(§2) ABYB7-H3 binds specifically to B7-H3. […]

For test [2], the target named is T3, recombinant soluble human B7-H3 ectodomain protein (Homo sapiens, UniProt Q5ZPR3).
T3 construct: incubated with 3 μM of recombinant soluble human B7-H3 ectodomain protein
T3 sequence (Q5ZPR3 29-466 limits assumed): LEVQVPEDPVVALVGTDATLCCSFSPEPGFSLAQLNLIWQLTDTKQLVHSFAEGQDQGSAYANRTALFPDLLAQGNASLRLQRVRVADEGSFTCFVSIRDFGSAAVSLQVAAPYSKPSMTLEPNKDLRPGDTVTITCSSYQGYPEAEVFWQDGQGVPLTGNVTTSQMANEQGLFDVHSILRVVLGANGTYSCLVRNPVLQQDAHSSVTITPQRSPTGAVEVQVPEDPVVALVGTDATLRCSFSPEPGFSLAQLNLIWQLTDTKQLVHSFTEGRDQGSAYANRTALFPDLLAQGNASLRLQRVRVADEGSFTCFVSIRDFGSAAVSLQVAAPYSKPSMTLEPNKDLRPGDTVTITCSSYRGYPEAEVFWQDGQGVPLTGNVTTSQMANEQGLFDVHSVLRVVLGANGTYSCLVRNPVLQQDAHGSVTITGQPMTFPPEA
Description: Streptavidin bead binding to recombinant soluble human B7-H3 ectodomain by flow cytometry. The note with it: ligand immobilized to streptavidin magnetic beads; 3 μM recombinant soluble human B7-H3 ectodomain. From the text: FIG. 9. Production and validation of ABYB7-H3.(A) Left panel: Commassie Blue staining of SDS-PAGE showing high purity and expected size (7,490 Da) of finalized ABYB7-H3 produced in E. Coli. Right panel: Mass spectrometric analysis of ABYB7-H3 showing a mass-to-charge peak (m/z=7,546) corresponding to ABY molecular weight. A doubly charged peak (m/z=3763) is also present. Amino acid sequence of ABYB7-H3 (SEQ ID NO:28) is shown on the bottom. (B) Flow cytometry of biotin-ABYB7-H3 conjugated streptavidin-microbeads complex showing binding to soluble recombinant B7-H3 (3 μM) as detected by APC conjugated anti-B7-H3 antibody. Unconjugated beads (negative control) and anti B7-H3 antibody (AB) conjugated beads (positive control) were also tested for binding to soluble B7-H3 antigen.
Production of ABYB7-H3. Development of a B7-H3-binding ligand from an ABY yeast display library is described in Example 1. […] ABYB7-H3 ligand was recombinantly expressed in E. coli, purified, and functionalized with 1:1 molar ratio of biotin. […] In order to confirm binding specificity of recombinantly produced ABYB7-H3 to its target, biotinylated-ABY was immobilized to streptavidin- magnetic beads and incubated with 3 μM of recombinant soluble human B7-H3 ectodomain protein.

In test [3] the test system is MS1-WT cells (MS1-Control, B7-H3-negative). Description: Cell-binding assay by flow cytometry on B7-H3-negative MS1 wild-type cells. Also on record: species or system mouse. The method, then: (§3) For cell-binding assay, MS1 B7-H3+ cells were stained with streptavidin-APC-labeled B7-H3-affibody for 1 hour at 4° C. and analyzed with FACS. As negative control cells, MS1-WT, a negative cell line, was stained with streptavidin-APC-labeled B7-H3-affibody.
(§4) Wild-type (WT) MILE SVEN 1 mouse vascular endothelial (MS1-WT or MS1 Control) cells were directly obtained directly from the American Type Culture Collection [(CRL2279; (ATCC)] that performs standard cell line characterizations of mycoplasma, yeast, bacterial, and viral contamination. The cell line was maintained according to the recommendations of the ATCC. Cells were cultured under sterile conditions in DMEM (ATCC) with FBS at 5% and maintained in a 5% CO2-humidified atmosphere at 37° C. Cells were transfected with human B7-H3 DNA. In brief, the human B7-H3 DNA sequence was first optimized for mammalian codon usage using standard techniques. The transfection of MS1-WT cells with the B7-H3-expression vector was performed using lipofectamine 2000 transfection reagent (Life Sciences; Invitrogen), following the recommended manufacturer's standard protocol. MS1 cells stably expressing human B7-H3 (MS1 B7-H3+) were grown in DMEM containing 10% FBS and 0.4 mg/mL puromycin (G418, Sigma) in a 5% CO2 humidified atmosphere and subcultured prior to confluence using trypsin.
as §2

Test [4] has as its target T4, human B7-H3 (MS1 B7-H3+ / MS1hB7-H3 cells) (Homo sapiens, UniProt Q5ZPR3).
T4 construct: expressed in transfected cells; host or cells: MS1 (MILE SVEN 1) mouse vascular endothelial cells, ATCC CRL2279
T4 sequence (Q5ZPR3 29-534): T1 sequence (Q5ZPR3 29-534)
As to the kind of experiment: Cell-binding assay by flow cytometry on MS1 cells expressing human B7-H3. The method, then: as §3, §4
ABYB7-H3 binds specifically to B7-H3. ABYB7-H3 binding to cells predominantly expressing 4lg-B7-H3 (hB7-H3) isoform and mouse cells expressing 2lg-B7-H3 (mB7-H3) isoform was tested. B7-H3 total protein as well as cell-surface expression was confirmed in MS1 mouse endothelial cells engineered to overexpress hB7-H3 (MS1hB7-H3) by western blotting and flow cytometry (FIG. 10A and B); only MS1hB7-H3 cells expressed B7-H3 protein, while both MS1WT and MS1hB7-H3 cells endogenously expressed CD31 protein, a common vascular endothelial marker, by western blot. […] ABYB7-H3 dose dependent increases in binding signal in both MS1hB7-H3 (0-10 μM) and RAW264.7 (0 25 μM) cells was observed, but not in the B7-H3-negative cells, MS1WT.

Another test deals with T5, B7-H3-cell lysate (Homo sapiens, UniProt Q5ZPR3).
T5 construct: expressed in transfected cells; host or cells: MS1 (Mile Sven 1) mouse endothelial cells, gift from J. Willmann (Stanford)
T5 sequence (Q5ZPR3 29-534): T1 sequence (Q5ZPR3 29-534)
As to the kind of experiment: Binding to B7-H3-cell lysate. The note with it: Example 1. The method, then:
FACS Selections with Detergent Solubilized Cell Lysates. Detergent solubilized cell lysates were prepared essentially as described. MS1-Thyl and MS1-CD276 cells were grown to 70-90% confluence in 75 cm^2 tissue culture-treated T-flasks. Culture medium was removed and the cells were washed once with 5 mL PBS. Cells were detached by trypsin-EDTA treatment for 4-7 minutes, quenched with serum-containing culture medium, and centrifuged at 500 g for 3 min. Pelleted cells were washed three times with ice cold PBS and pelleted at 300 g for 3 min at 4° C. Washed cells were resuspended in PBS with 0.5 mg/mL fresh sulfo-NHS-biotin (Thermo Fisher Scientific), rotated for 30 min at room temperature, and washed twice with ice cold PBSA to quench and remove excess biotin. Cells were resuspended in 100-200 μL FACS lysis buffer (PBS with 1% (viv) Triton X-100, 2 mM EDTA, and 1× complete protease inhibitor cocktail (Roche)) and incubated with rotation at 4° C. for 15 min, Cell debris was pelleted at 15,000 g for 30 min at 4° C. and removed. Induced yeast were washed once with PBSA, then incubated with cell lysate and mouse anti-c-Myc antibody (2.5 μg/mL) simultaneously for 2 h at 4° C. with rotation. Yeast were washed with 1 mL ice cold PBS containing 1% (v/v) Triton-X 100 and then with 1 mL ice cold PBSA. […]

In test [5] the target is T6, B7-H3 in human breast tumor and normal breast tissue sections (Homo sapiens, UniProt Q5ZPR3).
T6 construct: from tissue; host or cells: human breast tumour and normal breast tissue sections
T6 sequence (Q5ZPR3 29-534): T1 sequence (Q5ZPR3 29-534)
Description: Immunofluorescence staining of human breast tissue sections with ABYB7-H3-AF647. Type of test: binding. The note with it: ABYB7-H3 conjugated to AF647 dye.
From the text: as §1, with “panel. […]” for “panel.”

The target of the next test is T7, hB7-H3 (THP1 cells) (Homo sapiens, UniProt Q5ZPR3).
T7 construct: endogenous in cells; host or cells: THP1 human monocytic cell line, PMA 0 and 10 ng/mL
T7 sequence (Q5ZPR3 29-534): T1 sequence (Q5ZPR3 29-534)
As to the kind of experiment: Flow cytometry binding to THP1 human monocytic cells induced with PMA. The note with it: PMA 10 ng/mL; detected by streptavidin AF647.
From the text: as §1, with “(E) Immunofluorescence staining with ABYBY-H3-AF647 (red) and a nuclear marker, DAPI (blue), in a human breast tumor and normal breast tissue sections. Scale bar represents 100 μm. Zoomed images of insets are shown on the right panel.” left out
THP1 cells express a basal level of cell-surface hB7-H3, which was further increased upon stimulation by PMA (10 ng/mL) as detected by APC conjugated anti-B7-H3 antibody using flow cytometry (FIG. 10D).

[6] abbreviates: Example 3, biotinylated ABY detected by streptavidin-AF647, flow cytometry.

The term Kd denotes the constant that tells how readily two partners part at equilibrium. The substance “ABYB7-H3: engineered B7-H3-specific affibody protein, SEQ ID NO:1 (AC2), recombinantly expressed in E. coli with His6 tag (AEAKYAKEKIFAVGEIYWLPNLTHGQIMAFIAALNDDPSQSSELLSEAKKLNDSQAPK; His6 tag)” displayed a dissociation constant (Kd) in test [1] of 310 ± 100 nM. For the same substance, the “binding to mouse monocyte cell line RAW264.7 expressing mB7-H3” value in the test with mB7-H3 (RAW264.7 cells) is on record as “specifically binds”. Besides, the “binding to soluble B7-H3” value in test [2] worked out at 68%. Further, in test [3] (Example 1, MS1-WT cells, streptavidin-APC-labeled B7-H3-affibody 5-25 μM, FACS), the “binding to B7-H3-negative cells (MS1-Control)” value is given as “no binding”. Besides, the “binding to MS1WT cells” value in test [3] (setting [6]) is on record as “not to MS1WT cells”. Besides, in test [4] (Example 1, B7-H3-expressing cells), the “binding of fluorescently-labeled B7-H3-affibody after blocking of B7-H3 receptors with free B7-H3-affibody” value is given as “significantly (P<0.01) decreased binding”. Further, the “binding to B7-H3-expressing cells” value in test [4] (Example 1, MS1 B7-H3+ cells, streptavidin-APC-labeled B7-H3-affibody 5-25 μM, 1 hour at 4° C., FACS) is “showed binding”. In test [4] (setting [6]), the “binding to MS1hB7-H3 cells” value is reported as “specifically binds; also recorded: bound specifically”. Besides, the “binding to B7-H3-cell lysate” value in the test with B7-H3-cell lysate was “specific binding”. Also, in test [5], the “binding to normal breast tissue sections” value is “did not bind” and the “staining of human breast tumor tissue section” value is on record as “stained positive”. Besides, in the test with hB7-H3 (THP1 cells), the “binding to THP1 cells upon PMA-induced B7-H3 expression” value is given as “increased biotinylated ABYB7-H3 binding”.
